The test system of the series is ATP. In words: switch fluorescence ratio, 500 uM ATP over buffer (Cy3 cluster intensity, sum of 5 cycles each) (fold (ratio)); higher = stronger signal-on switching upon ATP binding; sequences stand for … in TCGTCGGCAGCGTCAGATGTGTATAAGAGACAGTTTTTTTTTTTTTTTTTTTTTTTTT…TC. The note with it: aptamer strand: ATP DNA aptamer (quencher-CACCTGGGGGAGTATTGCGGAGGAAGG + anchor), 100 nM annealed; ATP concentration: 500 uM; one replicate. Put shortly:
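Switching-strand clusters labelled with Cy3 on a modified Illumina MiSeq flow-cell were annealed to 100 nM quencher-labelled ATP aptamer, imaged in selection buffer, and re-imaged after 15 min with 500 uM ATP at 22 °C. This was done over five cycles with NaOH stripping and re-annealing in between. The fluorescence ratio is summed target-cycle over summed buffer-cycle Cy3 intensity per cluster, averaged per switch-domain sequence, excluding clusters outside 100-1000 RFU.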

Drawing on the supplement of paper PMC10126150, this text covers switch fluorescence ratio for 67 sequences.

Values marked as one replicate rest on one cluster of the flow cell; about a third of the high ones do not repeat.
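Further: ATP exposure 15 min at 22 °C before imaging.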

In the case of AGAGCTGGG, the switch fluorescence ratio came out at 1.01.
Consider GTTGGCAGCA, for which the switch fluorescence ratio worked out at 1.03.
As for TGCGGGTCTG, the switch fluorescence ratio is 0.986.
For the sequence AACATGCGTC, the switch fluorescence ratio turned out to be 1.05.
On to AGTTTAGTGT, for which the switch fluorescence ratio came out at 0.987.
For TATTTCGGCG the value was 1; for GGCCGTGGAG, 0.984.
In the case of AAGGCTTTCA, the switch fluorescence ratio worked out at 1.02.
Turning to GGTACAACTT, the switch fluorescence ratio turned out to be 0.956.
With GACGATTTGT, the switch fluorescence ratio is 0.965.
Consider GGCACGACTG, for which the switch fluorescence ratio was 0.992.
For GAATCAACG, the switch fluorescence ratio amounted to 1.
Take ACCTCTGATC: the switch fluorescence ratio came out at 1.11.
With ACATACCTGG, the switch fluorescence ratio turned out to be 1.3.
With ATAGGGTGAA, the switch fluorescence ratio was determined as 1.04.
To AGGGGGGAG belongs 0.952; to GGCCACGGTG, 1.54; to AACGGAAAGT, 1.18.
To GTCTGATTTC belongs 0.995.
On to TGCGTGTGCT, for which the switch fluorescence ratio amounted to 1.02.
TTCGAGGCGT: the switch fluorescence ratio amounted to 0.967.
Consider TGTGATCGCT, for which the switch fluorescence ratio came to 0.968.
As for AGTTGATTAT, the switch fluorescence ratio was determined as 1.04.
Turning to TTATGCTCCA, the switch fluorescence ratio is 1.01.
Regarding GGCGATGTG, the switch fluorescence ratio amounted to 1.07.
In the case of TGATGAGGCA, the switch fluorescence ratio is 0.951.
On to GCTCAAGAAG, for which the switch fluorescence ratio was 1.03.
Turning to GTCTGACCCC, the switch fluorescence ratio amounted to 1.13.
As for CTGCTCTAC, the switch fluorescence ratio stood at 2.29.
Turning to TTTCTAGCAC, the switch fluorescence ratio worked out at 1.18.
In the case of ATCGGATTC, the switch fluorescence ratio was determined as 1.01.
To TCTAAAGGTA belongs 0.918; to TTTTGGCCCT, 1.02.
As for GGAAGGACAT, the switch fluorescence ratio worked out at 1.06.
On to AAAATAATAC, for which the switch fluorescence ratio amounted to 0.999.
On to GCCAATTGCC, for which the switch fluorescence ratio stood at 1.02.
For AGGGATGTG the value was 0.986; for GTTCAGGTTG, 1.07; for TTCAAGGCGA, 1.06.
Take GACAGGTTTG: the switch fluorescence ratio turned out to be 1.03.
Consider TTACGTCGTA, for which the switch fluorescence ratio was 0.991.
Consider TTTCCCATAC, for which the switch fluorescence ratio is 1.32.
To TCTGTCAAC belongs 1.04.
TAGCCTGGTA: the switch fluorescence ratio was determined as 1.02.
With CGTCCCGTTA, the switch fluorescence ratio stood at 1.03.
Take AATCGTAGCT: the switch fluorescence ratio was determined as 1.03.
GAGTGAGAAC: the switch fluorescence ratio is 0.975.
In the case of GGCGTCCGAA, the switch fluorescence ratio came out at 1.07.
Take CGGCAACTCG: the switch fluorescence ratio is 1.13.
As to GGACGGAAGT, the switch fluorescence ratio was determined as 1.01.
CCTCACTTGT: the switch fluorescence ratio was 1.1.
To TTGGGAGTCC belongs 0.965; to GCACTTTGCC, 0.973; to TACGGAAATA, 1.05.
Take CGAATTGAGT: the switch fluorescence ratio stood at 0.989.
Consider TGACGACGTG, for which the switch fluorescence ratio came to 1.05.
To GCCTGAGCAT belongs 1.04; to ACAAATCCGG, 0.994; to TCGTAACCTT, 1.55.
To CAGTTTAACG belongs 0.911; to GCCCCTACAC, 1.02.
As to GCATAAGTTT, the switch fluorescence ratio was determined as 1.04.
For the sequence GCTCGTAGTA, the switch fluorescence ratio is 1.01.
With TGGACGGGGG, the switch fluorescence ratio was found to be 0.99.
Take CACGCCATGT: the switch fluorescence ratio was determined as 1.1.
Regarding CTATATTTGT, the switch fluorescence ratio came to 1.04.
As to AGCAGTTTTA, the switch fluorescence ratio was found to be 0.991.
